# Reference: PubChem BioAssay AID686978 (National Center for Advancing Translational Sciences (NCATS), 2013)
# Where “and” joins values, the source holds several entries; their conditions need not be identical. Identical values can stand only once. Among all 420,000 compounds or so, about 64,000 (15%) were called active. Inconclusive means that the source gave no clear call. Such entries were picked first, then a sample of the others. Calls come from the whole dose curve; as a rule, active = well fitted inhibition curve with a large enough effect; inconclusive = small, poorly fitted or top-dose-only effect; inactive = flat fitted curve, though single readings scatter. Potencies of inconclusive entries are doubtful fits and often do not repeat.
# Assay: qHTS for Inhibitors of human tyrosyl-DNA phosphodiesterase 1 (TDP1): qHTS in cells in absence of CPT; note: nearly all actives have a fitted effect of over 55% in size
# Settings: DT40 Tdp1-/- hTDP1 cells, no CPT, ATP luminescence, 48 h; activity change, negative = growth inhibition: at 46.2 µM (top of the series)
# How it was run: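 A cellular qHTS used chicken DT40 cells lacking endogenous Tdp1 but carrying stably transfected human TDP1. Compounds were applied without camptothecin, and cell growth kinetics were judged by ATP-dependent luminescence after ≥48 hr.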
# % is set by controls: 0 for no effect and ±100 for the full control effect; potency is the fitted concentration of half-maximal effect; tags give direction and shape of the fitted curve.
Structure (SMILES),Potency,"activity change, negative = growth inhibition"
COc1ccccc1-n1ccnc(SCC(=O)NCc2ccccc2Cl)c1=O,"inconclusive: 29.1 µM [inhibitor, single point]",–
COC(=O)/C=C/c1ccsc1NC(C)=O,–,inactive: -4.91%
O=C(CSc1nccc(=O)[nH]1)Nc1cccc2ccccc12,–,inactive: -2%
O=C(Nc1ccccc1Br)c1ccccc1-c1ccccc1,active: 6.51 µM,–
CCOC(=O)c1ccc(NC(=O)/C(C#N)=C/c2ccc(OC)cc2)cc1,"inconclusive: 3.26 µM [inhibitor, full curve]",–
Cc1ccc(S(=O)(=O)Nc2cc(C)cc(CCNC=O)c2C)cc1,"inconclusive: 23.1 µM [inhibitor, partial curve]",–
COc1ccc(CCN(Cc2nc3ccccc3c(=O)[nH]2)C(=O)C2CC2)cc1,–,inactive: -20.3%
COc1cc(F)ccc1-c1csc(C(NC(C)=O)c2ccc(F)c(F)c2)n1 (centres undefined),"inconclusive: 20.6 µM [inhibitor, single point]",–
OC[C@H]1O[C@H](c2nc(-c3nc(-c4cccc(-n5cccc5)c4)no3)cs2)C[C@@H]1O,"inconclusive: 16.4 µM [inhibitor, single point]",–
O=S(=O)(c1ccccc1C(F)(F)F)N1CCC(n2cnc3ccccc32)CC1,"inconclusive: 16.4 µM [inhibitor, single point]",–
CCSc1nc2ccccc2n1Cc1ccccc1F,"inconclusive: 20.6 µM [inhibitor, partial curve]",–
O=C(CSc1nnc(SCc2ccc(Cl)cc2)s1)N/N=C/c1ccc(C(=O)O)cc1,"inconclusive: 9.2 µM [inhibitor, partial curve, poor fit]",–
CCCN(CCC)C(=O)Cn1c(=O)n(-c2ccccc2)c(=O)c2c3c(sc21)CCCC3,"inconclusive: 10.3 µM [inhibitor, partial curve, poor fit]",–
COc1ccc(C2c3c(ncn(CCN4CCOCC4)c3=N)Oc3ccc4ccccc4c32)cc1OC (centres undefined),"inactive and inconclusive: 18.4 µM [inhibitor, single point]",–
Cc1cc(Br)cc(C)c1OCCCCN(C)C,"inconclusive: 18.4 µM [inhibitor, single point]",–
Cc1cccc2cc(CN(CCN(C)C)C(=S)Nc3ccccc3)c(=O)[nH]c12,"inconclusive: 25.9 µM [inhibitor, single point]",–
COc1cc(/C=C(\C#N)c2nc3ccccc3[nH]2)cc(Cl)c1OCc1ccccc1Cl,active: 18.4 µM,–
Cc1cc(OCc2nc(-c3ccncc3)no2)cc(C)c1Cl,–,inactive: -8.22%
CC(Sc1nnc(-c2ccccc2F)n1C1CC1)C(N)=O (centres undefined),"inconclusive: 11.6 µM [inhibitor, partial curve]",–
COc1cccc(Cn2c(=O)c3ccccc3n3nc(C)cc23)c1,"inconclusive: 23.1 µM [inhibitor, single point]",–
Cn1c(=O)c2c(-c3cccc(Br)c3)c(C#N)c(N)nc2n(C)c1=O,"inconclusive: 29.1 µM [inhibitor, single point]",–
COc1cc(/C=C2/C(=O)ON=C2C)ccc1OCc1ccccc1F,"inconclusive: 35.5 µM [inhibitor, single point]",–
Cc1ccc(CSc2oc(-c3ccco3)nc2S(=O)(=O)c2ccc(C)cc2)cc1,"inconclusive: 29.1 µM [inhibitor, single point]",–

Structure (SMILES),Potency,"activity change, negative = growth inhibition"
CCOc1ccc(N(CC(=O)NCc2ccc(Cl)cc2)S(=O)(=O)c2ccccc2)cc1,"inconclusive: 29.1 µM [inhibitor, single point]",–
O=C1CCC(=O)N1OCCOc1ccccc1,"inconclusive: 6.51 µM [inhibitor, single point]",–
COc1ccc(CNCC(=O)Nc2ccccc2-n2cccc2)cc1,active: 6.51 µM,–
O=C(COc1ccc(Cl)cc1Cl)Nc1cccc(-c2ccc(N3CCOCC3)nn2)c1,"inconclusive: 16.4 µM [inhibitor, partial curve]",–
FC(F)(F)c1cc(CO[C@@H]2CCCN[C@@H]2c2ccccc2)cc(C(F)(F)F)c1,active: 13 µM,–
COc1ccc(-n2c(=S)[nH]c3cc(C(=O)Nc4cc(OC)c(OC)c(OC)c4)ccc3c2=O)c(OC)c1,"inconclusive: 25.9 µM [inhibitor, single point]",–
CCOC(=O)/C=C/[C@H]1CCc2cccc(Cl)c2O1,–,inactive: -2.48%
O=C(CSc1nnnn1C1CCCCC1)Nc1ccccc1F,–,inactive: -41.2%
CCCn1c(C(C)Nc2nc(C)cs2)nc2cc(Cl)c(Cl)cc21 (centres undefined),"inconclusive: 23.1 µM [inhibitor, single point]",–
COCc1c(C(=O)NC2CCCCC2)cnn1-c1nccc(-c2cc(C)sc2C)n1,"inconclusive: 16.4 µM [inhibitor, single point]",–
COc1cc(OC)c(C(=O)C=Cc2ccc(OC)c(OC)c2)c(OC)c1,"inconclusive: 25.9 µM [inhibitor, single point]",–
O=C(Nc1ccccc1N1CCN(C(=O)c2ccc(Cl)cc2)CC1)c1cccnc1,"inconclusive: 14.6 µM [inhibitor, partial curve]",–
Cc1ccccc1C(=O)NC(=S)N(C)C1CCCCC1,–,inactive: -23.7%
CCC(NC(=S)NCc1ccccc1)C(=O)O (centres undefined),–,inactive: 11.5%
COc1cccc(-c2ccc3c(N)c(C(=O)NC4CC4)sc3n2)c1,"inconclusive: 29.1 µM [inhibitor, single point]",–
O=C(CCC1N=C2c3ccccc3N=C(SCc3ccc(Cl)cc3)N2C1=O)NCCc1ccccc1 (centres undefined),"inconclusive: 18.4 µM [inhibitor, single point]",–
O/N=C/c1cc(Br)ccc1OCc1cccc(F)c1,"inconclusive: 29.1 µM [inhibitor, single point]",–
N#Cc1c(-c2ccccc2)cc(-c2ccc(O)cc2)nc1N,"inconclusive: 16.4 µM [inhibitor, partial curve, poor fit]",–
COC(=O)Nc1sc2nc(C)cc(C)c2c1-n1cccc1,"inconclusive: 16.4 µM [inhibitor, partial curve]",–
O=C(Nc1ccc(F)cc1)c1ccccc1Oc1ccc(C(F)(F)F)cc1[N+](=O)[O-],"inconclusive: 23.1 µM [inhibitor, single point]",–
COc1cccc(C(=O)N(Cc2cccs2)C2CCS(=O)(=O)C2)c1 (centres undefined),–,inactive: -24.1%
CS(=O)(=O)c1ccc2nc(NC(=O)c3ccccc3)sc2c1,"inconclusive: 29.1 µM [inhibitor, single point]",–
O=C(NC1CSC/C1=N\O)c1ccccc1 (centres undefined),–,inactive: 1.47%

Structure (SMILES),Potency,"activity change, negative = growth inhibition"
O=C(NN1CCOCC1)c1cc(-c2ccc(Br)s2)nc2ccccc12,"inconclusive: 1.64 µM [inhibitor, full curve]",–
Cc1nn(Cc2c(Cl)cccc2Cl)c(C)c1NC(=O)CCCn1nc([N+](=O)[O-])c(Cl)c1C,active: 20.6 µM,–
Cc1cccc(OCCCCc2c(C)n[nH]c2C)c1,"inconclusive: 29.1 µM [inhibitor, single point]",–
CCCCCCCCCCCCN1[C@@H](CC(C)=O)c2cc(C(F)(F)F)ccc2S1(=O)=O,"inconclusive: 25.9 µM [inhibitor, single point]",–
CCOc1ccc(NCc2nc3ccccc3n2CCOc2ccccc2)cc1,"inconclusive: 29.1 µM [inhibitor, partial curve, poor fit]",–
CCOC(=O)C1(CCc2ccccc2)CCN(C(=O)c2cccc(C)n2)CC1,"inconclusive: 29.1 µM [inhibitor, single point]",–
O=C(Nc1ccccc1OC(=O)c1ccc(Cl)cc1)c1ccc(Cl)cc1,active: 16.4 µM,–
COCc1cc(C)nc2sc(C(=O)OC(C)C)c(N)c12,"inconclusive: 5.8 µM [inhibitor, partial curve]",–
Cc1cc(C(=O)COC(=O)c2ccccc2Br)c(C)n1CC1CCCO1 (centres undefined),"inconclusive: 29.1 µM [inhibitor, single point]",–
Cc1ccc(Oc2nc3ccccn3c(=O)c2/C=C(\C#N)C(=O)NC2CCS(=O)(=O)C2)cc1 (centres undefined),"inconclusive: 13 µM [inhibitor, partial curve]",–
Cc1nc2nc(SCC(=O)c3ccccc3)[nH]c2cc1Br,–,inactive: -19.9%
CCOc1cc(/C=N/Nc2cc(C)nc(-n3nc(C)cc3C)n2)ccc1O,active: 2.31 µM,–
COc1ccccc1CNC(=O)CCn1c(=O)c2ccccc2n(CC(=O)Nc2ccc(C)cc2Cl)c1=O,"inconclusive: 20.6 µM [inhibitor, partial curve, poor fit]",–
Fc1ccc(C(NCCc2ccc(Cl)cc2)c2nnc(-c3ccccc3)o2)c(Cl)c1 (centres undefined),"inconclusive: 23.1 µM [inhibitor, single point]",–
COc1cccc(C(=O)NCC2CCN(c3ccc(S(=O)(=O)N4CCOCC4)cc3)CC2)c1,"inconclusive: 29.1 µM [inhibitor, single point]",–
Cc1c(NC(=O)Nc2ccc(Br)cc2F)sc2nc3n(c(=O)c12)CCC(C)CC3 (centres undefined),"inconclusive: 8.2 µM [inhibitor, partial curve]",–
CCOc1ccc(NS(=O)(=O)c2cc3c4c(c2)C(C)C(=O)N4CCC3)cc1 (centres undefined),–,inconclusive: -41% [inhibitor]
COc1cccc(Cn2nnc(C(=O)Nc3cc(Cl)ccc3OC)c2N)c1,active: 16.4 µM,–
O=C(Nc1nccs1)[C@@H]1CC=C[C@@H]2CCN(C3CCCCC3)C(=O)[C@@H]21,–,inactive: 2.87%
CCCn1c2ccccc2c2cnn(CC(=O)N(C)c3ccccc3CC)c(=O)c21,"inconclusive: 20.6 µM [inhibitor, single point]",–
CC1CN(c2cnn(C(C)C)c(=O)c2Cl)CC(C)O1 (centres undefined),–,inactive: -1.42%
O=[N+]([O-])c1cc(CN(CCO)CCO)ccc1O,–,inactive: -3.73%
CCn1c2ccccc2c2nnc(SCc3ccc(C(=O)OC)o3)nc21,active: 23.1 µM,–
